Laboratory results: US20230338565A1, “ANTIBODY DRUG CONJUGATE, PREPARATION METHOD THEREFOR AND USE THEREOF” (SICHUAN KELUN-BIOTECH BIOPHARMACEUTICAL CO., LTD., priority 2020, published 2023)

What was measured:
[1] = molecular target: T1, human Claudin 18.2 (Homo sapiens, UniProt P56856); experiment: Cell ELISA on L929-Claudin 18.2 cells; format: binding
T1 construct: expressed in transfected cells; cells formaldehyde-fixed for the cell ELISA
Experimental: Human Claudin18.2 belongs to the tetraspanin family and has a complex structure. Cell ELISA was thus carried out to maintain the structure of Claudin18.2. The stable cell lines L929-Claudin 18.2 constructed in 6.1 were used for detection. Specifically, L929-Claudin 18.2 adherent cells were detached by 2 mM EDTA treatment. The cells were resuspended and adjusted to 2×10^5/mL and 100 μL of the resuspension was plated into a 96-well plate and incubated overnight at 37° C. The next day, the media was removed, and the plate was washed with PBS once. 100 μL/well 4% formaldehyde was added to the plate. After 30 min of incubation at room temperature, formaldehyde was removed, followed by being washed twice with PBS. Blocking buffer (PBS containing 2% BSA) was then added to the plate at 100 μL/well, and incubated at 37° C. for 2 h. After removal of blocking buffer, 100 μL/well of serially diluted antibodies (starting from 1 μM, with 4-fold dilution, for a total of 11 concentrations) were added to the corresponding wells, which were incubated at 37° C. for 2 h afterwards. The plate was washed with 250 μL PBST for 5 times, and was allowed to stand for 2 min each time. 100 μL/well of horseradish peroxidase labeled anti-Human IgG secondary antibody (HRP-anti-Human IgG, Jackson ImmunoResearch, 109-035-003) diluted 1:10000 in PBS (containing 2% BSA) was added to the plate. The plate was incubated at 37° C. for 1 h and washed with 250 μL of PBST 6 times, wherein the plate was allowed to stand for 2 min each time. 100 μL/well of TMB solution (Thermo, 34029) was added. The reactions were incubated at 37° C. for 20 min and stopped with 50 μL 2 mol/L H2504. The OD450 nm absorbance values were obtained on a plate reader (MD, SpectraMax M2) and the results were subjected to curve fitting by Graphpad Prism.
A cell-based ELISA method was carried out to determine the affinity of 2C6.9-TL001 (DAR: 7.12) to Claudin 18.2 on the surface of cell membrane. […]

[2] = test system: HEK293T-Claudin 18.2 cells; experiment: Killing activity of 2C6.9-ADC (CCK8); format: cell-based, human; conditions: DAR 7.12; HEK293T-Claudin 18.2 vs HEK293T-Claudin 18.1
[3] = test system: HEK293T-Claudin 18.1 cells; experiment: Killing activity of 2C6.9-ADC (CCK8); format: cell-based, human; conditions: 48 h
[4] = test system: NCI-N87-Claudin18.2 subcutaneous transplanted tumor; experiment: 12.2 2C6.9-TL001 versus 2C6.9 mAb + chemotherapy in CDX model; format: in vivo, Balb/c Nude mice; conditions: DAR 7.12
[5] = test system: NUGC-4 subcutaneous transplantation tumor; experiment: 12.3 2C6.9-TL001 with different DAR values in CDX (NUGC-4) model; format: in vivo, Balb/c Nude mice; conditions: Day 21
[6] = test system: HuPrime gastric cancer GA0006 (high expression Claudin18.2 stomach tumor); experiment: 12.4 HuPrime gastric cancer GA0006 + Balb/c Nude mice PDX model; format: in vivo; conditions: DAR 7.12
[7] = test system: NCI-N87-Claudin18.2 gastric cancer transplanted tumor; experiment: 12.1 NCI-N87-Claudin18.2 + Balb/c Nude mice CDX model; format: in vivo; conditions: 2C6.9-TL001 DAR 7.12, 2C6.9-TL002 DAR 6.95
[8] = 3 mg/kg tail vein twice a week for 3 weeks, Day 21, 7 mice/group
[9] = 3 mg/kg tail vein twice a week for 3 weeks
[10] = 10 mg/kg tail vein twice a week for 3 weeks
[11] = 1 mg/kg tail vein twice a week x6, Day 21, 7 mice/group
[12] = 1 mg/kg tail vein twice a week x6, Day 21
[13] = 3 mg/kg tail vein twice a week x6, Day 21, 7 mice/group
[14] = 3 mg/kg tail vein twice a week x6, Day 21

B1: 2C6.9-hz11: humanized anti-human Claudin 18.2 IgG1 kappa monoclonal antibody; heavy chain SEQ ID NO: 18, light chain SEQ ID NO: 20 (antibody)
heavy: QVQLQESGPGLVKPSETLSLTCTVSGFSLTRYGVSWIRQPPGKGLEWIGVIWGDGNTNYNPSLKSRVTISKDSSKSQVSLKLSSVTAADTAVYYCARVNFGNALDYWGQGTLVTVSS[human IgG1 constant region not spelt out]
light: DIVMTQSPDSLAVSLGERATINCKSSQSLLNSGNQKNYLTWYQQKPGQPPKLLIYWASTRDSGVPDRFSGSGSGTDFTLTISSLQAEDVAVYYCQNDFIFPLTFGGGTKVEIKRTVAAPSVFIFPPSDEQLKSGTASVVCLLNNFYPREAKVQWKVDNALQSGNSQESVTEQDSKDSTYSLSSTLTLSKADYEKHKVYACEVTHQGLSSPVTKSFNRGEC
modifications: Full length amino acid sequence of heavy chain of humanized antibody 2C6.9-hz11; Full length amino acid sequence of light chain of humanized antibody 2C6.9-hz11/2C6.9-hz21
affinity to human Claudin 18.2 (in words) ([1]; L929-Claudin 18.2 cell ELISA, same experiment, result omitted): close to that of antibody 2C6.9-hz21

B2: 2C6.9-TL001 (DAR: 7.12): 2C6.9-TL001 from conjugation feed ratio 9:1, toxin-to-antibody ratio 7.12 (conjugate)
heavy: B1 heavy with D54E
light: B1 light
EC50 value of the affinity to Claudin 18.2 on the cell membrane surface ([1]; cell-based ELISA, L929-Claudin 18.2 cells, DAR 7.12): 0.03994 µg/mL
difference of killing activity, Claudin 18.2 cells versus Claudin 18.1 cells [2]: about 8 times
EC50 for killing HEK293T-Claudin18.1 [3]: 3.9 µg/mL
Tumor regression CR (mice with complete regression) [4, 8]: 5
Tumor regression PR (mice with partial regression) [4, 8]: 2
TGI (%) ([4]; 3 mg/kg tail vein twice a week for 3 weeks, Day 21): 125.73%
Tumor regression PR (mice with partial regression) ([4]; 3 mg/kg tail vein twice a week, Day 11, 7 mice/group): 6
TGI (%) ([4]; 3 mg/kg tail vein twice a week, Day 11): 121.68%
TGI (%) [5, 9]: 49.60%
Tumor volume (mm^3) (x ± SEM) [5, 9]: 670.96 ± 113.92 mm^3
TGI (%) [5, 10]: 87.17%
Tumor volume (mm^3) (x ± SEM) [5, 10]: 250.04 ± 28.73 mm^3
Tumor regression PR (mice with partial regression) ([6]; 3 mg/kg tail vein twice a week x5, Day 17, 7 mice/group): 4
TGI (%) ([6]; 3 mg/kg tail vein twice a week x5, Day 17): 94.72%
Tumor regression PR (mice with partial regression) ([6]; 3 mg/kg tail vein twice a week x5, Day 24, 7 mice/group): 6
TGI (%) ([6]; 3 mg/kg tail vein twice a week x5, Day 24): 103.76%
Tumor regression CR (mice with complete regression) ([6]; 10 mg/kg tail vein twice a week x5, Day 17, 7 mice/group): 7
Tumor regression CR (mice with complete regression) ([6]; 10 mg/kg tail vein twice a week x5, Day 24, 7 mice/group): 7
TGI (%) ([6]; 10 mg/kg tail vein twice a week x5, Day 24): 113.70%

B3: 2C6.9-TL002: ADC prepared by conjugating TL002 with humanized monoclonal antibody 2C6.9 (conjugate)
heavy: B1 heavy with D54E
light: B1 light
EC50 for killing HEK293T-Claudin18.1 [3]: 30.59 µg/mL
Tumor regression CR (mice with complete regression) [7, 11]: 0/0
Tumor regression PR (mice with partial regression) [7, 11]: 0/0
T/C (%) [7, 12]: 95.94%
Tumor volume (mm^3) (x ± SEM) [7, 12]: 461.02 ± 36.32 mm^3
Tumor regression CR (mice with complete regression) [7, 13]: 0
Tumor regression PR (mice with partial regression) [7, 13]: 1
T/C (%) [7, 14]: 70.62%
TGI (%) [7, 14]: 40.11%
Tumor volume (mm^3) (x ± SEM) [7, 14]: 339.28 ± 43.91 mm^3

B4: 2C6.9-TL003: ADC prepared by conjugating TL003 with humanized monoclonal antibody 2C6.9 (conjugate)
heavy: B1 heavy with D54E
light: B1 light
EC50 for killing HEK293T-Claudin18.1 [3]: 8.258 µg/mL

Positions count from the first letter of the chain named.
